# From the supplement of paper PMC9135407
# Values joined by “and” are separate entries in the source; they are usually repeats but may differ in a detail not shown here. Identical values can stand only once. Counter-ions that a name gives are not always drawn. About 620 (11%) of roughly 5,800 compounds showed activity.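 How the source made its calls: active = score above a cut-off or among the top three wells of a plate; in these data no inactive exceeds 0.85.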 The entries are a selection whose mix differs from that of the whole data set.
# Tested on: primary human hepatic stellate cells (donor 1)
# Experiment: scaled lipid accumulation score (0 = DMSO-like, 1 = nortriptyline-like); higher = stronger HSC inactivation (lipid re-accumulation), active = hit call of the paper
# Details: 48 h
# [1] = library stock concentration: 10 mM
# [2] = library stock concentration: 3.33 mM
# [3] = library stock concentration: 7.5 mM
# [4] = library stock concentration: 1 mM
# [5] = library stock concentration: 6 mM
smiles,measurement,setting,value
"Cc1cn([C@H]2C[C@H](N=[N+]=[N-])[C@@H](CO)O2)c(=O)[nH]c1=O [Zidovudine, AZT]",scaled lipid accumulation score,,inactive: 0.142
Cc1cn([C@H]2C[C@H](N=[N+]=[N-])[C@@H](CO)O2)c(=O)[nH]c1=O [3'-Azido-3'-deoxythymidine],scaled lipid accumulation score,[1],inactive: 0.071
Cc1cn([C@H]2C[C@H](N=[N+]=[N-])[C@@H](CO)O2)c(=O)[nH]c1=O,scaled lipid accumulation score,[1],inactive: ≤ 0
Cc1cn([C@H]2C[C@H](N=[N+]=[N-])[C@@H](CO)O2)c(=O)[nH]c1=O [Zidovudine],scaled lipid accumulation score,[2],inactive: 0.038
same,scaled lipid accumulation score,[1],inactive: ≤ 0
Cc1cn([C@H]2C[C@H](N=[N+]=[N-])[C@@H](CO)O2)c(=O)[nH]c1=O [3'-azido-3'-deoxythymidine],scaled lipid accumulation score,[3],inactive: ≤ 0
Cc1cn([C@H]2C[C@H](N=[N+]=[N-])[C@@H](CO)O2)c(=O)[nH]c1=O [Zidovudine [azt]],scaled lipid accumulation score,[3],inactive: ≤ 0
same,scaled lipid accumulation score,[1],inactive: ≤ 0
COc1cc(N)c(Cl)cc1C(=O)CCC1CCN(CCNS(C)(=O)=O)CC1,scaled lipid accumulation score,[1],inactive: ≤ 0
CCCNC(C)C(=O)Nc1c(C)csc1C(=O)OC (stereo not given) [Articaine HCl],scaled lipid accumulation score,[2],inactive: ≤ 0
same,scaled lipid accumulation score,[1],inactive: ≤ -0.001
CCCNC(C)C(=O)Nc1c(C)csc1C(=O)OC (stereo not given) [Articaine hydrochloride],scaled lipid accumulation score,,inactive: ≤ 0
NCCc1cc[nH]n1 [Betazole hydrochloride],scaled lipid accumulation score,,inactive: 0.123
"CCCCCCCCCC(=O)OCC(CO)OC(=O)CCCCCCCCC (stereo not given) [1,2-Didecanoyl-sn-glycerol]",scaled lipid accumulation score,[4],inactive: ≤ 0
"CCCCCCCCCC(=O)OCC(CO)OC(=O)CCCCCCCCC (stereo not given) [1,2-Didecanoyl-glycerol (10:0)]",scaled lipid accumulation score,[4],inactive: ≤ -0.021
"CC(=O)C1=C(O)C=C2Oc3c(C(C)=O)c(O)c(C)c(O)c3C2(C)C1=O (single isomer, unassigned; (+)) [(+)-Usniacin]",scaled lipid accumulation score,[2],inactive: 0.01
same,scaled lipid accumulation score,[1],inactive: ≤ 0
O=c1cc(-c2ccc(O)cc2)oc2cc(O[C@@H]3O[C@H](CO)[C@@H](O)[C@H](O)[C@H]3O)cc(O)c12 [Cosmosiin],scaled lipid accumulation score,[1],inactive: 0.333
Cc1c(NC(C)C)c(=O)n(-c2ccccc2)n1C [Ramifenazone],scaled lipid accumulation score,[1],inactive: 0.012
Cc1c(NC(C)C)c(=O)n(-c2ccccc2)n1C [Isopyrin hydrochloride],scaled lipid accumulation score,,inactive: ≤ 0
O=C(O)c1cc2cccc([N+](=O)[O-])c2[nH]1,scaled lipid accumulation score,[2],inactive: ≤ -0.009
same,scaled lipid accumulation score,[1],inactive: 0.006
COc1ccc(CCc2nc3cc(-c4c(C)noc4C)ccc3n2C[C@H](C)N2CCOCC2)cc1Cl,scaled lipid accumulation score,[2],inactive: ≤ -0.009
same,scaled lipid accumulation score,[1],inactive: 0.391
COc1cc(/C=C(\C#N)C(=O)c2ccc(O)c(O)c2)cc(I)c1O [I-OMe-Tyrphostin AG 538],scaled lipid accumulation score,[1],inactive: ≤ 0
CNCC[C@H](Oc1cccc2ccccc12)c1cccs1.Cl [Duloxetine hydrochloride],scaled lipid accumulation score,[5],active: 1.05
CC1(C)S[C@@H]2[C@H](NC(=O)[C@H](N)c3ccccc3)C(=O)N2[C@H]1C(=O)OC1OC(=O)c2ccccc21 (stereo not given in full) [Talampicillin hydrochloride],scaled lipid accumulation score,,inactive: ≤ 0
NC(=O)OCC(O)COc1ccc(Cl)cc1 (stereo not given) [Chlorphensin carbamate],scaled lipid accumulation score,,inactive: ≤ 0
CC(=O)OCOC(c1cc([N+](=O)[O-])ccc1Oc1ccc(Br)cc1)P(=O)(OCOC(C)=O)OCOC(C)=O (stereo not given),scaled lipid accumulation score,library stock concentration: 8.1 mM,active: 0.887
O=C(O)c1ccc(-n2nc(-c3ccccc3O)nc2-c2ccccc2O)cc1 [Deferasirox],scaled lipid accumulation score,[2],inactive: ≤ 0
same,scaled lipid accumulation score,[1],inactive: 0.042
COc1cc(C(=O)NC2CCN(C)CC2)ccc1Nc1ncc2c(n1)N(C1CCCC1)CC(F)(F)C(=O)N2C,scaled lipid accumulation score,[2],inactive: 0.271
same,scaled lipid accumulation score,[1],inactive: 0.722
O=C1c2ccccc2-c2nc3nnnn3nc21 [PDK1/Akt/Flt Dual Pathway Inhibitor],scaled lipid accumulation score,[2],inactive: 0.462
O=C(NCc1cccc(O)c1)Nc1nc(-c2ccncc2)cs1,scaled lipid accumulation score,[2],inactive: 0.56
COC(=O)CCc1ccc(OCC(O)CNC(C)C)cc1 (stereo not given),scaled lipid accumulation score,[1],inactive: ≤ 0
COC(=O)CCc1ccc(OCC(O)CNC(C)C)cc1 (stereo not given) [Esmolol HCl],scaled lipid accumulation score,[2],inactive: ≤ 0
same,scaled lipid accumulation score,[1],inactive: ≤ -0.001
COC(=O)CCc1ccc(OCC(O)CNC(C)C)cc1 (stereo not given) [Esmolol],scaled lipid accumulation score,library stock concentration: 6.8 mM,inactive: ≤ 0
CC(N)(Cc1ccc(O)cc1)C(=O)O (racemic) [DL-alpha-Methyl-p-tyrosine],scaled lipid accumulation score,[1],inactive: 0.213
CN1C(C(=O)Nc2ccccn2)=C(O)c2ccccc2S1(=O)=O [Piroxicam],scaled lipid accumulation score,,inactive: 0.194
same,scaled lipid accumulation score,[2],inactive: 0.032
same,scaled lipid accumulation score,[5],inactive: ≤ -0.006 and inactive: ≤ 0
same,scaled lipid accumulation score,[1],inactive: ≤ 0 and inactive: ≤ -0.006
same,scaled lipid accumulation score,library stock concentration: 15.1 mM,inactive: ≤ -0.012
